Measurements published in the supplement of paper PMC7826260.
Some of the results follow. Each Rep nickase domain was tested in vitro on the same pool of single strands at 3 µM enzyme and 37 °C for 1 h; the strands have 90 letters, of which the middle is given. A value is the log2 ratio of uncut reads to the pool without enzyme; uncut sequences lie near 0, cut ones below; no hit call is given. Shares of all reads are compared; values above 0 arise when much of the pool is cut.

Legend:
Experiment in all cases: uncleaved DNA left, log2 of reads against the no-enzyme library (log2 ratio); higher = less cleavage (more negative = more Rep cleavage of the k-mer); sequences stand for … in CTCGTCCG…ACCGGAGA
[1] = tested on: T1, Rep nickase domain of Muscovy duck circovirus
T1 sequence (Rep 1-111, printed without the tag): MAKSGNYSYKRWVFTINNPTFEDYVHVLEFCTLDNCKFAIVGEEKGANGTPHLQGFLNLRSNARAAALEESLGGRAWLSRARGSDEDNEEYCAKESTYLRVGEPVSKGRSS
Experimental: (§1)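 A pool of 90-nt single-stranded DNAs with seven random bases just before the constant AC of the nick site (name = the seven bases) was cut by 3 µM recombinant His6-SUMO-tagged Rep nickase domain (300 nM DNA, 50 mM HEPES pH 8.0, 50 mM NaCl, 1 mM MnCl2, 1 h, 37 °C, three replicates). Uncut DNA was amplified and sequenced.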

[2] = tested on: T2, Rep nickase domain of banana bunchy top virus
T2 sequence (Rep 1-94, printed without the tag): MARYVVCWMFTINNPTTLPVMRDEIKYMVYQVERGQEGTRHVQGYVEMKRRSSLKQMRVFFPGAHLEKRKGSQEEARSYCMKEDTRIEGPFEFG
Experimental: as §1

[3] = tested on: T3, Rep nickase domain of cabbage leaf curl virus
T3 sequence (Rep 1-116, printed without the tag): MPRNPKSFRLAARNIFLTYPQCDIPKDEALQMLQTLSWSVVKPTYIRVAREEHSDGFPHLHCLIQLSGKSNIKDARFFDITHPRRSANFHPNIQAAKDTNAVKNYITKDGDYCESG
Experimental: as §1

[4] = tested on: T4, Rep nickase domain of chickpea chlorotic dwarf virus
T4 sequence (Rep 1-124, printed without the tag): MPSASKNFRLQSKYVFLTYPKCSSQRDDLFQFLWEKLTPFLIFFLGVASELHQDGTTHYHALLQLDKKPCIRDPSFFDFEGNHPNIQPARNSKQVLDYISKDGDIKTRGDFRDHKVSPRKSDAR
Experimental: as §1

[5] = tested on: T5, Rep nickase domain of faba bean necrotic yellows virus
T5 sequence (Rep 1-98, printed without the tag): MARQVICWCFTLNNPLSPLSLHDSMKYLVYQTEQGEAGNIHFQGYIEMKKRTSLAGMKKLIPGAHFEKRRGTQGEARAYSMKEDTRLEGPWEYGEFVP
Experimental: as §1

[6] = tested on: T6, Rep nickase domain of maize striate mosaic virus
T6 sequence (Rep 1-117, printed without the tag): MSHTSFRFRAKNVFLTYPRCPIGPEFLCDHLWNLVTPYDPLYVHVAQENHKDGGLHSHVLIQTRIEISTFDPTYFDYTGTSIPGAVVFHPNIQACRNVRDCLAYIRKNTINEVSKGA
Experimental: as §1

[7] = tested on: T7, Rep nickase domain of porcine circovirus 2
T7 sequence (Rep 2-116, printed without the tag): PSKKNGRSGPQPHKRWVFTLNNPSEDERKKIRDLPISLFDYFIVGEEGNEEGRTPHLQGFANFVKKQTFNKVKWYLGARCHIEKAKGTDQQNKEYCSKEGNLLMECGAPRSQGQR
Experimental: as §1

[8] = tested on: T8, Rep nickase domain of tomato yellow leaf curl virus
T8 sequence (Rep 1-136, printed without the tag): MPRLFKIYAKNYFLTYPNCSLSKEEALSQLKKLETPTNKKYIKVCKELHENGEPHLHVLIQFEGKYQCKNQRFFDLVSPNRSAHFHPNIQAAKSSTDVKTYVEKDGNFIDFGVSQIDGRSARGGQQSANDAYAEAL
Experimental: as §1

[9] = tested on: T9, Rep nickase domain of wheat dwarf virus
T9 sequence (Rep 1-137, printed without the tag): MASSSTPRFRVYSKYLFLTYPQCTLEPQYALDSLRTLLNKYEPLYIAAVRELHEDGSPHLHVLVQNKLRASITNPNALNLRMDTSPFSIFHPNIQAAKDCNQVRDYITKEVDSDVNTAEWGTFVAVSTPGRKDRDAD
Experimental: as §1

Sequence	uncleaved DNA left (log2) [1]	uncleaved DNA left (log2) [2]	uncleaved DNA left (log2) [3]	uncleaved DNA left (log2) [4]	uncleaved DNA left (log2) [5]	uncleaved DNA left (log2) [6]	uncleaved DNA left (log2) [7]	uncleaved DNA left (log2) [8]	uncleaved DNA left (log2) [9]
CTAAGGA	-0.0493	-0.0763	-0.0239	0.0674	-0.0192	-0.325	0.0937	-0.076	0.0344
TCTTCCA	-0.0864	-0.0313	0.146	-1.18	0.0944	-0.388	-0.136	0.0106	0.0425
ATTAAAC	-0.0309	-0.0712	-0.06	-0.473	-0.0529	-0.82	-0.0213	-0.0532	-0.00236
ATCCCGC	0.0359	-0.03	-0.546	-0.535	-0.0947	-0.851	0.0503	-0.0684	-0.102
TAGGAAG	0.0668	0.101	-0.466	-0.571	0.0859	-0.997	0.102	0.0734	-0.142
CCCGATG	-0.111	-0.263	-0.235	-0.0842	-0.0701	-0.441	-0.0955	-0.24	-0.209
ACACCTG	0.103	0.0718	-0.396	-0.365	0.199	-0.67	0.275	0.0677	0.0411
CGTCTCT	-0.0586	-0.126	-0.119	-1.48	-0.101	-0.221	-0.355	-0.0297	-0.181
GCACGTC	-0.0298	0.0248	-0.124	-0.00203	-0.0206	-0.478	-0.0859	-0.0795	-0.025
GTCCCGC	0.0345	0.134	0.324	0.734	0.083	1.24	0.0817	0.111	0.0875
TAGTGTG	0.118	0.0998	-0.638	-0.206	0.123	-0.94	-0.241	0.184	0.000113
CCCGCAT	-0.172	-0.202	-0.0399	-0.478	-0.104	-0.589	-0.226	-0.214	-0.156
GGGTTCG	0.0505	0.0662	0.477	0.966	0.0335	1.04	0.187	-0.00752	0.0455
GAGCCGG	0.0944	0.06	0.363	0.952	0.0513	1.46	0.108	0.0336	0.0915
ATTGCAG	0.0315	0.0228	-0.413	1	0.0613	-0.109	0.138	0.139	-0.0327
CTTATGC	-0.131	-0.0298	-0.567	-0.587	-0.115	-1.25	0.037	-0.0265	-0.035
GCATTCG	-0.09	-0.0916	-0.663	0.539	-0.0132	-0.517	0.0605	-0.0386	-0.12
AGCGCAC	-0.00552	0.0163	0.075	0.356	-0.079	0.922	0.0233	-0.169	-0.0671
CTGACCT	0.0408	-0.00257	-0.00848	0.37	-0.0709	0.671	0.0145	-0.0651	-0.00502
ATTTCAT	-0.144	-0.138	0.0413	-0.867	0.0205	-0.551	-0.698	0.0881	0.15

Sequence	uncleaved DNA left (log2) [1]	uncleaved DNA left (log2) [2]	uncleaved DNA left (log2) [3]	uncleaved DNA left (log2) [4]	uncleaved DNA left (log2) [5]	uncleaved DNA left (log2) [6]	uncleaved DNA left (log2) [7]	uncleaved DNA left (log2) [8]	uncleaved DNA left (log2) [9]
GAATGGC	-0.0338	-0.00525	-0.0839	-0.0143	0.021	-0.629	-0.0263	0.0664	0.000528
TTATTGG	0.046	-0.112	-0.323	-0.401	0.0683	-0.831	0.0794	-0.106	-0.0492
TTATGCA	-0.254	-0.0235	-0.526	-1.13	-0.223	-1.38	-0.2	0.0275	-0.131
GGTGCCT	-0.135	0.0488	0.534	1.2	0.0011	1.85	0.11	0.0512	-0.0359
CATCAGA	0.13	0.0306	-0.412	-0.695	0.0318	-1.06	0.0794	0.00678	-0.0588
CACTAAC	0.00691	0.00904	-0.327	-1.7	0.0401	-0.82	-0.277	-0.0465	0.0201
TAAGTAA	0.127	-0.00575	-0.187	-1.76	0.0387	-0.246	0.0824	0.0457	-0.0156
AGTGCCG	-0.0876	-0.203	-0.807	-0.647	-0.138	-1.06	-0.0338	-0.206	-0.136
CTCTCTC	-0.118	-0.0633	-0.0184	-0.242	0.0215	-0.432	-0.07	-0.0848	-0.0105
TATCCTT	-0.0664	0.00878	-0.81	-2.88	0.0853	-0.189	-1.53	-0.0583	-0.155
GTATCGA	0.0284	0.0158	0.14	0.532	-0.0545	0.401	0.0711	0.00317	0.0315
CAACATA	-0.0743	-0.237	-0.36	-2.12	-0.135	-0.499	-0.231	-0.119	-0.19
ATAGTAC	-0.576	-0.0246	-0.0643	-1.22	0.103	-0.856	-0.485	0.0849	-0.0697
CACACTC	-0.0739	-0.14	-0.271	-1.02	0.0183	-0.651	-0.00992	-0.205	-0.0363
AATAGTT	-0.187	-0.937	-0.869	-2.53	-0.00746	-0.6	-3.46	-0.0487	-0.188
GCAGGGG	0.0205	0.0355	0.371	0.766	-0.0234	0.367	0.248	-0.0653	0.111
CAAAGAA	0.113	0.109	0.0976	-0.313	0.109	-0.577	0.295	0.0062	0.0757
AGCTAAT	-0.758	-0.0663	-0.767	-0.448	-0.105	0.225	-3.77	0.0505	-0.367
ACAGTAG	0.0958	-0.058	-0.626	-0.00653	0.153	-1.08	0.31	0.19	0.0374
CTAAGTA	0.101	0.0298	-1.08	-2.32	0.042	-0.947	-0.104	0.154	-0.206

Sequence	uncleaved DNA left (log2) [1]	uncleaved DNA left (log2) [2]	uncleaved DNA left (log2) [3]	uncleaved DNA left (log2) [4]	uncleaved DNA left (log2) [5]	uncleaved DNA left (log2) [6]	uncleaved DNA left (log2) [7]	uncleaved DNA left (log2) [8]	uncleaved DNA left (log2) [9]
TAGTGCG	0.000641	-0.123	-0.213	0.987	-0.118	0.593	0.0656	-0.152	-0.161
GTATTTG	-0.00405	-2.23e-05	0.0631	0.294	0.0826	-0.331	0.132	0.0204	0.0802
TAGTCCA	-0.0955	-0.626	-0.169	-2.18	-0.971	0.0981	-3.22	0.219	0.153
GCTGGCT	0.0929	-0.041	0.0573	0.0586	-0.184	0.205	0.0123	-0.0552	-0.169
CCTCGCC	-0.0295	0.0936	-0.314	-0.274	-0.0859	-0.686	0.0547	-0.0216	-0.133
AGGCTAT	-0.115	0.0178	0.25	0.817	-0.11	1.24	-0.0155	-0.111	0.0573
AAACATC	0.000906	0.0186	-0.134	-0.803	0.0157	-0.604	0.155	0.0775	0.11
TGTTCAC	-0.00844	0.124	0.38	0.837	-0.0695	1.63	0.0695	0.0859	0.116
GAGTAAG	0.0879	0.0733	-0.57	-0.516	0.0885	-0.827	-0.0323	0.0749	-0.0154
GTGCCGT	-0.0456	0.033	-0.0488	0.344	-0.107	-0.0975	-0.0442	-0.0474	-0.0581
CGGCGGC	0.128	0.151	0.087	0.318	0.121	0.358	0.138	0.0492	-0.0277
CTTTACA	-0.169	-0.0433	-0.562	-2.44	-0.191	-0.808	-0.256	-0.221	-0.089
CGGATTC	-0.0983	-0.0643	0.213	0.414	0.0483	-0.0247	-0.00351	0.0422	0.0778
TATTTGC	-0.0756	0.0237	-0.695	-0.109	0.135	-1.08	0.0812	0.101	-0.0375
TTAGAGG	0.0113	-0.15	0.388	1.12	-0.00588	1.27	0.0538	-0.228	-0.0678
ATGCACC	0.114	0.0456	-0.0463	-0.0771	0.129	-0.491	-0.0606	0.00253	0.0348
GCGTGTT	-2.06	-0.39	-0.685	-1.14	-1.02	0.41	-2.59	0.0344	-0.776
AAATGTT	-4.03	-3.7	-4.88	-3.47	-1.32	-3.68	-4.9	-3.66	-4.41
TAAGATG	0.0936	0.18	0.384	1.31	0.0868	1.52	0.272	-0.0308	0.209
AAGAGTT	0.132	-0.0505	0.196	0.471	-0.0492	1.45	-3.08	-0.0696	0.128
